Results published in patent US20190276511A1 (BIONTECH RNA PHARMACEUTICALS, published 2019).
Where two headings read alike, the source gives them in different places. Blank lines part the entries; values can stand above or below the binder they belong to.

How the values were obtained:
[1] = target: T1, CD40-Fc (human, UniProt P25942 fragment); assay: ELISA, coated receptor-Fc
T1 construct: extracellular domain; hinge included for covalent assembly; also called CD40 receptor-Fc fusion protein; not shown: human Fc gamma 1 region including the hinge region
Method: (§1) Receptor binding of the EHD2-scDuokines was analyzed by ELISA using fusion proteins of the extracellular region of CD40, CD27 and 4-1BB, respectively, with the human Fcγ1 region including the hinge region for covalent assembly (CD40-Fc, CD27-Fc, 4-1BB-Fc). Receptor-Fc fusion proteins (200 ng/well) were coated overnight at 4° C. and remaining binding sites were blocked with PBS, 2% skimmed milk powder (2% MPBS).

[2] = target: T2, 4-1BB-Fc (human, UniProt Q07011 24-186); assay: ELISA, coated receptor-Fc
T2 construct: extracellular domain; hinge included for covalent assembly; also called 4-1BB receptor-Fc fusion protein; not shown: human Fc gamma 1 region including the hinge region
Method: as §1

[3] = target: T3, CD27-Fc (human, UniProt P26842 20-191); assay: ELISA, coated receptor-Fc
T3 construct: extracellular domain; hinge included for covalent assembly; also called CD27 receptor-Fc fusion protein; not shown: human Fc gamma 1 region including the hinge region
T3 sequence (looked up): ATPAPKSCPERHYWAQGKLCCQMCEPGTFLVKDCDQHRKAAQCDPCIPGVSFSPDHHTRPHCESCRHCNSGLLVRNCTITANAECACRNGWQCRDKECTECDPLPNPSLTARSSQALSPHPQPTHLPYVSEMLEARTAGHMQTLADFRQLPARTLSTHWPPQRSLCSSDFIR

[4] = target: T4, CD40 receptor on cells (human, UniProt P25942 21-277); assay: cell-based or functional assay
[5] = target: T5, 4-1BB receptor on cells (human, UniProt Q07011 24-255); assay: cell-based or functional assay
[6] = target: T4, CD40 receptor on cells; assay: cell-based or functional assay; remark: listed apart in the source
T4 sequence (P25942 21-277): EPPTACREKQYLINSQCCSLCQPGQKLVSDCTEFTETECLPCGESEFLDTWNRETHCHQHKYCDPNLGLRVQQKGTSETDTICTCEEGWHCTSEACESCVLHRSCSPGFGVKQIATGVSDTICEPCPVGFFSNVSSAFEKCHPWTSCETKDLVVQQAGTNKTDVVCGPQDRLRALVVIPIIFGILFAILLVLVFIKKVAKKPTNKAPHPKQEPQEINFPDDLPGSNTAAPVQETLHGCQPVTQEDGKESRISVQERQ

[7] = target: T5, 4-1BB receptor on cells; assay: cell-based or functional assay; remark: listed apart in the source
T5 sequence (Q07011 24-255): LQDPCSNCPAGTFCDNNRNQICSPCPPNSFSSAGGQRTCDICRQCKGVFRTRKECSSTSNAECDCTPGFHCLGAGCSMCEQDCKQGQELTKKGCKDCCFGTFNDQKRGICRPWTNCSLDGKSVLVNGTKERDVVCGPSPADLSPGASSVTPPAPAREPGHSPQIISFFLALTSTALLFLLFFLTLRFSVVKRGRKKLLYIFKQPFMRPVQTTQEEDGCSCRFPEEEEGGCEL

[8] = target: T6, OX40-Fc (human, UniProt P43489 29-214); assay: ELISA, coated receptor-Fc
T6 construct: extracellular domain; hinge included for covalent assembly; also called OX40 receptor-Fc fusion protein; not shown: human Fc gamma 1 region including the hinge region
T6 sequence (looked up): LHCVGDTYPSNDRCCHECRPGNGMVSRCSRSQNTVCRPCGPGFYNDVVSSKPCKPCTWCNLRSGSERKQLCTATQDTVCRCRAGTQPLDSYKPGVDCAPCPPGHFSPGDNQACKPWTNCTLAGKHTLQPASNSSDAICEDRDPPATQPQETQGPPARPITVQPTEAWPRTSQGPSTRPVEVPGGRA

[9] = target: T1, CD40-Fc; assay: ELISA, coated receptor-Fc; remark: listed apart in the source
T1 sequence (P25942 21-193 limits assumed): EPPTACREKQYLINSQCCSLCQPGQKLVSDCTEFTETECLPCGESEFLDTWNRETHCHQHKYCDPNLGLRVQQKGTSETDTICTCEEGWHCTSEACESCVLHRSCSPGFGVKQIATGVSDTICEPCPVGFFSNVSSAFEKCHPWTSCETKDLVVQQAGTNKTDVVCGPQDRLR
Method: as §1, with “the Duokines” for “the EHD2-scDuokines”, “CD40, CD27, 4-1BB” for “CD40, CD27”, “and OX40,” for “and 4-1BB,”, “CD27-Fc, 4-1BB-Fc, OX40-Fc).” for “CD27-Fc, 4-1BB-Fc).”

[10] = target: T2, 4-1BB-Fc; assay: ELISA, coated receptor-Fc; remark: listed apart in the source
Method: as §1, with “the Duokines” for “the EHD2-scDuokines”, “CD40, CD27, 4-1BB” for “CD40, CD27”, “and OX40,” for “and 4-1BB,”, “CD27-Fc, 4-1BB-Fc, OX40-Fc).” for “CD27-Fc, 4-1BB-Fc).”

[11] = target: T3, CD27-Fc; assay: ELISA, coated receptor-Fc; remark: listed apart in the source
Method: as §1

[12] = target: T1, CD40-Fc; assay: ELISA, coated receptor-Fc; remark: listed apart in the source

EC50 [1]: 3.06 nM
EC50 [2]: 3.61 nM
binding result [3]: no binding (tested: 100 nM (FIG. 16))
Receptor activation (EC50, nM), IL-8 release from HT1080 cells [4]: 0.75 nM
Receptor activation (EC50, nM), IL-8 release from HT1080 cells [5]: 0.27 nM
B1: sc4-1BBL-EHD2-scCD40L (ligand)
chain: [not shown - about 200 residues]GGGGSGGGGSGGGGSREGPELSPDDPAGLLDLRQGMFAQLVAQNVLLIDGPLSWYSDPGLAGVSLTGGLSYKEDTKELVVAKAGVYYVFFQLELRRVVAGEGSGSVSLALHLQPLRSAAGAAALALTVDLPPASSEARNSAFGFQGRLLHLSAGQRLGVHLHTEARARHAWQLTQGATVLGLFRVTPEIPAGLPSPRSEGGGGSGGGGSGGGGSREGPELSPDDPAGLLDLRQGMFAQLVAQNVLLIDGPLSWYSDPGLAGVSLTGGLSYKEDTKELVVAKAGVYYVFFQLELRRVVAGEGSGSVSLALHLQPLRSAAGAAALALTVDLPPASSEARNSAFGFQGRLLHLSAGQRLGVHLHTEARARHAWQLTQGATVLGLFRVTPEIPAGLPSPRSEGGSGGDFTPPTVKILQSSCDGGGHFPPTIQLLCLVSGYTPGTINITWLEDGQVMDVDLSTASTTQEGELASTQSELTLSQKHWLSDRTYTCQVTYQGHTFEDSTKKCADSNGGSGGGDQNPQIAAHVISEASSKTTSVLQWAEKGYYTMSNNLVTLENGKQLTVKRQGLYYIYAQVTFCSNREASSQAPFIASLCLKSPGRFERILLRAANTHSSAKPCGQQSIHLGGVFELQPGASVFVNVTDPSQVSHGTGFTSFGLLKLGGGSGGGGDQNPQIAAHVISEASSKTTSVLQWAEKGYYTMSNNLVTLENGKQLTVKRQGLYYIYAQVTFCSNREASSQAPFIASLCLKSPGRFERILLRAANTHSSAKPCGQQSIHLGGVFELQPGASVFVNVTDPSQVSHGTGFTSFGLLKLGGGSGGGGDQNPQIAAHVISEASSKTTSVLQWAEKGYYTMSNNLVTLENGKQLTVKRQGLYYIYAQVTFCSNREASSQAPFIASLCLKSPGRFERILLRAANTHSSAKPCGQQSIHLGGVFELQPGASVFVNVTDPSQVSHGTGFTSFGLLKL
notes: From HEK293; Ig kappa leader left out; also called EHD2-scDuokine sc4-1BBL-EHD2-scCD40L; not shown: N-terminal FLAG tag

Receptor activation (EC50, nM) [6]: 2.95 nM
Receptor activation (EC50, nM) [7]: 0.18 nM
binding result [3]: no binding (tested: 100 nM (FIG. 4))
binding result [8]: no binding (tested: 100 nM (FIG. 4))
EC50 [9]: 1.61 nM
EC50 [10]: 1.78 nM
B2: 4-1BBL-CD40L (ligand)
chain: [not shown - about 200 residues]GGGGSGGGGSGGGGSGGGGSGDQNPQIAAHVISEASSKTTSVLQWAEKGYYTMSNNLVTLENGKQLTVKRQGLYYIYAQVTFCSNREASSQAPFIASLCLKSPGRFERILLRAANTHSSAKPCGQQSIHLGGVFELQPGASVFVNVTDPSQVSHGTGFTSFGLLKL
notes: Duokine from HEK293, FLAG-purified; VH leader left out; homotrimer by SEC; also called Duokine 4-1BBL-CD40L; not shown: N-terminal FLAG tag

EC50 [11]: 2 nM
EC50 [2]: 1.93 nM
binding result [12]: no binding (tested: 100 nM (FIG. 16))
Receptor activation (EC50, nM), IL-8 release from HT1080 cells [5]: 1.64 nM
B3: sc4-1BBL-EHD2-scCD27L (ligand)
chain: [not shown - about 200 residues]GGGGSGGGGSGGGGSREGPELSPDDPAGLLDLRQGMFAQLVAQNVLLIDGPLSWYSDPGLAGVSLTGGLSYKEDTKELVVAKAGVYYVFFQLELRRVVAGEGSGSVSLALHLQPLRSAAGAAALALTVDLPPASSEARNSAFGFQGRLLHLSAGQRLGVHLHTEARARHAWQLTQGATVLGLFRVTPEIPAGLPSPRSEGGGGSGGGGSGGGGSREGPELSPDDPAGLLDLRQGMFAQLVAQNVLLIDGPLSWYSDPGLAGVSLTGGLSYKEDTKELVVAKAGVYYVFFQLELRRVVAGEGSGSVSLALHLQPLRSAAGAAALALTVDLPPASSEARNSAFGFQGRLLHLSAGQRLGVHLHTEARARHAWQLTQGATVLGLFRVTPEIPAGLPSPRSEGGSGGDFTPPTVKILQSSCDGGGHFPPTIQLLCLVSGYTPGTINITWLEDGQVMDVDLSTASTTQEGELASTQSELTLSQKHWLSDRTYTCQVTYQGHTFEDSTKKCADSNGGSGGSLGWDVAELQLNHTGPQQDPRLYWQGGPALGRSFLHGPELDKGQLRIHRDGIYMVHIQVTLAICSSTTASRHHPTTLAVGICSPASRSISLLRLSFHQGCTIASQRLTPLARGDTLCTNLTGTLLPSRNTDETFFGVQWVRPGGGSGGGSLGWDVAELQLNHTGPQQDPRLYWQGGPALGRSFLHGPELDKGQLRIHRDGIYMVHIQVTLAICSSTTASRHHPTTLAVGICSPASRSISLLRLSFHQGCTIASQRLTPLARGDTLCTNLTGTLLPSRNTDETFFGVQWVRPGGGSGGGSLGWDVAELQLNHTGPQQDPRLYWQGGPALGRSFLHGPELDKGQLRIHRDGIYMVHIQVTLAICSSTTASRHHPTTLAVGICSPASRSISLLRLSFHQGCTIASQRLTPLARGDTLCTNLTGTLLPSRNTDETFFGVQWVRP
notes: From HEK293; Ig kappa leader left out; dimer through EHD2, about 50% covalently linked, SEC major peak at monomer size; also called EHD2-scDuokine sc4-1BBL-EHD2-scCD27L; not shown: N-terminal FLAG tag
